Some of the results follow. At the low end of the ranking the order means little.
Biological target: T1, GST-Rok (full length) (UniProt O34857)
T1 sequence: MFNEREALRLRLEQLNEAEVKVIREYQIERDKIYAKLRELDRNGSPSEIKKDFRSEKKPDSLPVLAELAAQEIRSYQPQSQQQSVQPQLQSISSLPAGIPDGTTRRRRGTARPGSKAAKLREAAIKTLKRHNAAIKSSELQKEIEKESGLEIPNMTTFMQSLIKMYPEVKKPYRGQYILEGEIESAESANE
Test: protein binding microarray;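 further: rank score from −0.5 (least bound) to 0.5 (best bound)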
Conditions: Rok is a gene silencer of Bacillus subtilis; high values mean tight binding; most listed sequences are background and not binding sites; double strand, one strand shown

Sequence | binding signal
GCAAGTCC | -0.149 E-score
GTGTGTTA | 0.121 E-score
CACTGAAA | -0.128 E-score
CGCGCAAC | -0.16 E-score
CTGCAGGA | -0.3 E-score
ACCGCACC | -0.27 E-score
AATCCGAG | 0.139 E-score
CGAGAGAG | -0.208 E-score
ACATCACC | -0.126 E-score
ACGACAGC | -0.179 E-score
ATTAGATG | 0.22 E-score
ACCACATG | 0.0989 E-score
ACCCGTAC | -0.0166 E-score
AAGGTGCG | -0.306 E-score
CGGCCGGC | -0.253 E-score
ACCCTTGA | -0.112 E-score
GATTAGGA | 0.0758 E-score
CCGGGGTC | -0.422 E-score
ATGCCCTG | -0.134 E-score
CCTCCATC | -0.226 E-score
ACGCTAAT | 0.216 E-score
GCTAACGA | 0.123 E-score

Sequence | binding signal
GGGAATTA | 0.106 E-score
AAATAGGA | 0.12 E-score
ATGGCAAG | 0.0231 E-score
GACTCGTA | -0.0752 E-score
ACAGTTTA | 0.102 E-score
GTGCGGAA | -0.0982 E-score
TCACACGA | -0.0132 E-score
TACTAACA | 0.272 E-score
AGCATCCG | -0.148 E-score
ATGGGTGG | -0.0108 E-score
CGCTTGGC | -0.223 E-score
ATTGCACG | 0.0595 E-score
CCTCGCAC | -0.252 E-score
CTAATACC | 0.179 E-score
AAAAAAGC | -0.0757 E-score
AGCCAAAC | 0.0694 E-score
CAATACTG | -0.0136 E-score
ATATAACA | 0.22 E-score
GAACTGAC | -0.0175 E-score
CAACCCCC | -0.447 E-score
AGGGGGGG | -0.437 E-score
AGTCCCAC | 0.0311 E-score

Sequence | binding signal
AACAGTGC | -0.0608 E-score
ATCCCGCC | -0.114 E-score
AAGTAATG | 0.118 E-score
ACAGCGTC | -0.21 E-score
CACAAACG | 0.0573 E-score
CTGAGACA | -0.149 E-score
ATAGGTAC | 0.219 E-score
CCGCAACG | -0.17 E-score
AGGCGCAG | -0.161 E-score
CTAACACA | -0.123 E-score
AACGTCAG | -0.236 E-score
CGAAAACG | -0.18 E-score
CCGAAGCA | -0.0409 E-score
CGTTGGAG | -0.198 E-score
ATCTAGCA | 0.339 E-score
CAGGTACG | 0.00491 E-score
ACGAGAGA | -0.0139 E-score
CTATCTAA | 0.264 E-score
AGGGCTAG | -0.123 E-score
ACCGCGAT | 0.159 E-score
CACTGTGG | -0.125 E-score
GAGCCCTC | -0.37 E-score

Sequence | binding signal
AATCGGCG | -0.0837 E-score
GCAGTTTA | 0.0849 E-score
CGGTTTGA | 0.0298 E-score
CCATTCAC | 0.048 E-score
ACATATCG | 0.262 E-score
ATCTTTGG | -0.0492 E-score
CCTAAGAG | -0.0999 E-score
AGCGTGGG | -0.179 E-score
CCAAAACG | -0.128 E-score
GTACGCTA | 0.252 E-score
AGTCAACG | -0.0694 E-score
ACCTTTCT | 0.114 E-score
ATCCATTG | 0.0941 E-score
AGATTCTG | 0.114 E-score
ATTTTCCC | -0.0469 E-score
AATGCACC | -0.123 E-score
CGAAATGC | -0.0235 E-score
AAGGAACT | -0.0194 E-score
CAACAAGA | -0.0944 E-score
AACGCGAG | -0.0399 E-score
